Reference: PubChem BioAssay AID1030 (National Center for Advancing Translational Sciences (NCATS), 2008)
The campaign covered roughly 220,000 compounds. About 16,000 (7.3%) were called active. The inconclusive results got no clear call from the source; some entries with a clear call stand among them for comparison. Calls come from the whole dose curve; as a rule, active = well fitted inhibition curve with a large enough effect (not every such curve was filed as active); inconclusive = small, poorly fitted or top-dose-only effect, or another doubt; inactive = no such curve, though single readings can be large or run the other way. Potencies of inconclusive entries are doubtful fits and often do not repeat. Numbered stars: 1 amine (or outer) side, 2 acyl side, 3 side chain; on linkers, the order of the positions; unused ones are H or OH. Bridge positions count the residues as written; N and C are the ends. Square brackets hold non-standard residues; d marks the D form. Peptide text beside a SMILES is read from it. I, II: the chains in the order shown. Actinocin(9to1) = Cc1c2oc3c(C)ccc(C(=O)[*:1])c3nc-2c(C(=O)[*:2])c(N)c1=O; NMeV = CN[CH](C(=O)O)C(C)C; Sar = CNCC(=O)O

Molecular target: Aldehyde dehydrogenase 1A1 (Homo sapiens) (UniProt P00352)
UniProt P00352, sequence (P00352 whole entry, looked up): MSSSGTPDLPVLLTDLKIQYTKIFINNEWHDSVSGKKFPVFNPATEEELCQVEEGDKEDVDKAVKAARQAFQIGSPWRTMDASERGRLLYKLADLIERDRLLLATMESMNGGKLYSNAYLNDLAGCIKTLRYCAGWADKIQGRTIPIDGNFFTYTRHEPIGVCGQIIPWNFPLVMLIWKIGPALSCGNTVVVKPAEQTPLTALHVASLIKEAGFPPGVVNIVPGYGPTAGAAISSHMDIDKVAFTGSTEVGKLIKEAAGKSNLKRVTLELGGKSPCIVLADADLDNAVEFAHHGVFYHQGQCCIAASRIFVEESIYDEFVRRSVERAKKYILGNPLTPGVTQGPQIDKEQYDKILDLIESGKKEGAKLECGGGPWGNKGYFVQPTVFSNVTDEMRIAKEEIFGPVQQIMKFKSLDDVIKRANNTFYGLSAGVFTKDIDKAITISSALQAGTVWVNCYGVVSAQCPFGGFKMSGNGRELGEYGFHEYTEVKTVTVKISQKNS
Assay: qHTS Assay for Inhibitors of Aldehyde Dehydrogenase 1 (ALDH1A1);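 for activity, negative = inhibition: plate controls were no enzyme wells and a reference inhibitor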
Conditions: Purified ALDH1A1, NADH fluorescence, propionaldehyde substrate; series mostly up to 75.3 µM; activity, negative = inhibition: at the top concentration
Potency is the fitted concentration of half-maximal effect; tags give direction and shape of the fitted curve.

Potency, active:
Cc1ccc(C(C[N+](=O)[O-])Sc2ccc(N)cc2)cc1 (centres undefined) 3.98 µM
Cc1onc(C(=O)N2CCOCC2)c1[N+](=O)[O-] 25.1 µM
COc1ccc(CCNC(=O)CSc2nc3[nH]ncc3c(=O)n2-c2ccc(C)c(Cl)c2)cc1OC 7.94 µM
Cc1cc(NS(=O)(=O)c2ccc(NC(=S)NC(=O)c3ccc(C(C)(C)C)cc3)cc2)no1 12.6 µM
CCc1c(C)[nH]n(-c2nc(-c3cccc([N+](=O)[O-])c3)cs2)c1=O 14.1 µM
COCCn1c(SCC(=O)c2c(-c3ccccc3)n(C)c3ccccc23)nnc1-c1ccncc1 20 µM
COc1ccc(C/C(N)=N/OC(=O)C(c2ccccc2)c2ccccc2)cc1OC 6.31 µM
CCOC(=O)c1sc(NC(=O)CCN2CCC(C)CC2)c(C(=O)OCC)c1C 2.51 µM
CCOc1ccc(NC(=O)CN2CCN(C3c4ccccc4-c4ccccc43)CC2)cc1 11.2 µM
O=C1NCCCc2c1oc1cc(Br)c(O)c(Br)c21 3.98 µM
O=C(COC(=O)c1c2c(nc3ccccc13)CCCC2)Nc1ccc2c(c1)OCO2 8.91 µM

Potency, inconclusive:
Cc1onc(-c2c(Cl)cccc2Cl)c1C(=O)Nc1ccc(Cl)cn1 25.1 µM [inhibitor, single point]
CS(=O)(=O)N(CCC#N)Cc1ccc(C=O)o1 44.7 µM [inhibitor, single point]
Cc1ccc(S(=O)(=O)N(c2nc(NC(C)C)nc(NC(C)C)n2)n2cnnc2)cc1 17.8 µM [inhibitor, partial curve]
COc1ccc(C(=O)N2CCC3(CC2)CN(c2cccc(-c4ccccc4)c2)C3)cc1 31.6 µM [inhibitor, partial curve]
COc1ccc(CCNc2oc(COc3ccccc3F)nc2C#N)cc1OC 39.8 µM [inhibitor, single point]
Cc1ccc(S(=O)(=O)N2CCCC(C(=O)NCc3cccnc3)C2)cc1Cl (centres undefined) 39.8 µM [inhibitor, single point]
Cc1ccc(-n2nc(C(=O)O)c(O)cc2=O)cc1 39.8 µM [inhibitor, single point]
N#C/C(=C\c1ccc(C(=O)O)cc1)c1nc2sc3c(c2c(=O)[nH]1)CCCC3 37.7 µM [inhibitor, single point]
COc1ccc(C(=O)NCC(=O)N2CCc3ccccc3C2)cc1 25.1 µM [inhibitor, partial curve]
CC(=O)N1CCN(c2ccc(S(=O)(=O)N3CCCCC3)cn2)CC1 39.8 µM [inhibitor, single point]
O=c1c(-c2cc(F)cc(F)c2)nc2cnc(N3CCNCC3)nc2n1CCc1ccccc1 25.1 µM [inhibitor, single point]
CC(C)c1ccc(NC(=S)NCc2ccc3c(c2)OCO3)cc1 31.6 µM [inhibitor, partial curve, poor fit]
COc1ccc2nc(NC(=O)c3cc(S(=O)(=O)N4CCOCC4)ccc3C)sc2c1 28.2 µM [inhibitor, partial curve]
O=C(CN1CCN(C(=O)c2ccco2)CC1)Nc1ccc(Cl)c(S(=O)(=O)N2CCOCC2)c1 39.8 µM [inhibitor, single point]
Fc1ccc(C2CCCN2Cc2nc(Cc3ccccc3F)no2)cc1 (centres undefined) 8.91 µM [inhibitor, single point]
O=C1CSC(c2ccncc2)N1Cc1ccco1 (centres undefined) 39.8 µM [inhibitor, single point]
COc1ccc(/C=C/C(=O)c2ccc(Cl)s2)cc1O 31.6 µM [inhibitor, single point]
O=C(CSc1nc2ccccc2c(=O)n1-c1ccccc1)NC(=O)CN1CCCC1=O 10 µM [inhibitor, partial curve]
Cc1nnc(NC(=O)CCCOc2ccccc2)s1 39.8 µM [inhibitor, single point]
Cc1ccc(N2CC(C)Cn3c2nc2c3c(=O)n(CC(=O)OCc3ccccc3)c(=O)n2C)cc1C (centres undefined) 39.8 µM [inhibitor, single point]
COc1ccccc1NC(=S)N(Cc1ccc(C)cc1)Cc1ccccn1 7.94 µM [inhibitor, partial curve]
O=C1c2ccccc2NC(c2ccccn2)N1NS(=O)(=O)c1ccccc1 (centres undefined) 39.8 µM [inhibitor, single point]
O=C(Oc1ccccc1)N1CCC2(CCCN(c3ccc(-c4ccccc4)cc3)C2)CC1 25.1 µM [inhibitor, partial curve]
Cn1cccc1CC(=O)NNC(=S)Nc1ccccc1Cl 39.8 µM [inhibitor, single point]
CC(=O)N(C)c1ccc(N=Nc2c(C)[nH]n(C(N)=S)c2=O)cc1 8.91 µM [inhibitor, single point]
COCC(=O)NCCNc1nc2ccc(C)cc2cc1C 39.8 µM [inhibitor, single point]
O=C(COC(=O)c1ccc2ncsc2c1)NC(=O)NCc1ccccc1 31.6 µM [inhibitor, partial curve]
CCN(CC)C(=O)Cn1cc(S(=O)(=O)CC(=O)Nc2ccc3c(c2)OCCO3)c2ccccc21 39.8 µM [inhibitor, single point]
Cc1nc2ccccn2c1C(=O)N/N=C/c1ccc(CNC(=O)C(=O)Nc2ccccc2)o1 44.7 µM [inhibitor, single point]
COc1ccc(C)cc1-n1nnnc1SC/C(O)=C(\C#N)c1nc2ccccc2[nH]1 1.41 µM [inhibitor, full curve]
O=C(CSc1nnc2scc(-c3ccccc3)n12)Nc1nsc(-c2ccccc2)n1 15.8 µM [inhibitor, partial curve]
CCOC(=O)c1ccccc1NC(=O)CSc1nnc(COc2ccccc2)n1CC 39.8 µM [inhibitor, single point]
O=C(NCc1ccco1)C1CCCN1C(=O)NCc1ccccc1 (centres undefined) 25.1 µM [inhibitor, single point]
N#Cc1c(NC(=O)CCCC(=O)O)sc2c1CCCCC2 39.8 µM [inhibitor, single point]
COC(=O)c1c(NC(=S)NN2CCOCC2)sc2c1CCCC2 39.8 µM [inhibitor, single point]
COC(=O)c1ccc(SCC(=O)NC2CCCCC2)c([N+](=O)[O-])c1 39.8 µM [inhibitor, single point]
Cc1ccc2nc(-c3ccc(NC(=O)c4cccnc4)cc3)oc2c1 39.8 µM [inhibitor, single point]
CCc1c(C)nc2cc(-c3ccc(OC)c(OC)c3)nn2c1N1CCCC1 35.5 µM [inhibitor, single point]
CCN(C(=O)CSc1cc(-c2ccccc2)c2ccc(OC)cc2n1)C1CCS(=O)(=O)C1 (centres undefined) 25.1 µM [inhibitor, partial curve]
O=C(CCC(=O)c1cccs1)OCC(=O)c1ccc(Cl)s1 39.8 µM [inhibitor, single point]
CCCCn1c(SCC(=O)N2c3ccccc3Sc3ccccc32)nc2c1c(=O)n(C)c(=O)n2C 8.91 µM [inhibitor, single point]
CCOC(=O)Cn1c(=O)n(C2CCCC2)c(=O)c2ccccc21 39.8 µM [inhibitor, single point]
CN1CCN(c2cc3c(c4c2[nH]c2ccccc24)C(=O)CC(C)(C)C3)CC1 31.6 µM [inhibitor, partial curve]
O=C(c1ccc([N+](=O)[O-])c(CS(=O)(=O)c2ccc(Cl)cc2)c1)N1CCCCC1 35.5 µM [inhibitor, single point]

activity, negative = inhibition, inactive:
Cc1ccc(Oc2cc(NC(=O)CCCn3nc([N+](=O)[O-])c(Cl)c3C)cc([N+](=O)[O-])c2)cc1 8.97%
C=CCn1c(N2C(=O)CC(Cc3ccccc3)C2=O)nc2ccccc21 (centres undefined) 1.63%
CN(C)C(CNC(=S)Nc1ccc(F)cc1)c1cccnc1 (centres undefined) 9.93%
O=C(CSc1nnc2ccccn12)N1CCc2ccccc21 -1.35%
COc1ccc(N2C(=O)C3CCCN3C2c2cccc(F)c2)cc1Cl (centres undefined) 1.33%
CC(C)CC(=O)NNC(=S)NCc1ccco1 -1.68%
CCOC(=O)c1nc(-c2ccc(OC)c(OC)c2)no1 10.8%
Cc1c2oc3c(C)ccc(C(=O)NC4C(=O)NC(C(C)C)C(=O)N5CCCC5C(=O)N(C)CC(=O)N(C)C(C(C)C)C(=O)OC4C)c3nc-2c(C(=O)NC2C(=O)NC(C(C)C)C(=O)N3CCCC3C(=O)N(C)CC(=O)N(C)C(C(C)C)C(=O)OC2C)c(N)c1=O (centres undefined) (I: TVP[Sar][NMeV] / II: TVP[Sar][NMeV]; ester I:1-I:C, II:1-II:C; linker I:N-II:N via Actinocin(9to1); configuration not given here) -2.77%
COC(=O)c1cc(=O)n(Cc2ccccc2)c(=NCc2ccccc2)s1 10.7%
